Assay results published in the supplement of paper PMC6828730.
Where a name gives a salt, the structure may show the parent alone. The list shows a part of the results. Most values come without repeats; read them as rough.

test system: hiPSC-derived cardiomyocytes; assay: time to death of most cells in well after compound addition (days); higher = less cardiotoxic; extreme values may be limits of the assay; conditions: screen: 4; 10 µM

Compound	time to death of most cells in well
Cc1ncc(-c2ccnc(Nc3ccc(S(C)(=O)=O)cc3)n2)n1C(C)C	> 7
N=C(N)NC(=N)NCCc1ccccc1 [Phenformin HCl]	> 7
Cc1cnc(Nc2ccc(OCCN3CCCC3)cc2)nc1Nc1cccc(S(=O)(=O)NC(C)(C)C)c1	1.5
CO[C@H]1CC[C@H](N2C(=O)CNc3ncc(-c4ccc(C(C)(C)O)nc4)nc32)CC1	> 7
CCN(CC)CCCC(C)Nc1nc(C)cc(Nc2ccc3nc(C)cc(N)c3c2)n1 (stereo not drawn)	> 7
O=C1NCCc2[nH]c(-c3ccncc3)cc21	> 7
COc1cc2ncnc(Nc3ccc(F)c(Cl)c3)c2cc1OCCCN1CCOCC1 [Gefitinib (ZD1839)]	> 7
Cc1ccccc1-n1c(Cn2nc(-c3cccc(O)c3)c3c(N)ncnc32)nc2cccc(C)c2c1=O	> 7
CCOC(=O)c1cnc2ccc(-c3cncc(NS(=O)(=O)c4ccccc4)c3)cn12	4
COc1ccc(S(=O)(=O)N(C(C)=O)c2ccccc2/C=C/c2cc[n+]([O-])cc2)cc1	> 7
O=C1Nc2ccc(I)cc2C1=Cc1cc(Br)c(O)c(Br)c1	> 7
CN(C(Cc1ccc(OS(=O)(=O)c2cccc3cnccc23)cc1)C(=O)N1CCN(c2ccccc2)CC1)S(=O)(=O)c1cccc2cnccc12 (stereo not drawn)	> 7
CN1CCCN(C(=O)c2cccc(-c3ccc(/C=C4/C(=O)Nc5ccc(Cl)cc54)o3)c2)CC1	0.5
O=c1sn(-c2cccc3ccccc23)c(=O)n1Cc1ccccc1 [Tideglusib]	> 7
CCNC(=O)Nc1ccc(-c2nc3c(c(N4CCOC[C@@H]4C)n2)CCN(C2COC2)C3)cc1	> 7
COc1cc2c(c(OC)c1OC)-c1c(cc3c(c1OC)OCO3)CC(C)C(C)C2 (stereo not drawn) [Schisandrin B (Sch B)]	> 7
CN1CCN(c2ccc(C(=O)Nc3n[nH]c4ccc(Cc5cc(F)cc(F)c5)cc34)c(NC3CCOCC3)c2)CC1 [Entrectinib (RXDX-101)]	1.5
Cc1[nH]c2ccccc2c1C1=C(NCCc2ccc(F)cc2)C(=O)N(C)C1=O	> 7
COc1nccc(-c2c(-c3ccc(F)cc3)ncn2C2CCC(O)CC2)n1 (stereo not drawn)	> 7

Compound	time to death of most cells in well
Cc1cc(NC(=O)c2cccc(NC(=O)/C=C/CN(C)C)c2)ccc1Nc1nccc(-c2cccnc2)n1	4
CNC(=O)c1cc(Oc2ccc(NC(=O)Nc3ccc(Cl)c(C(F)(F)F)c3)cc2)ccn1 [Sorafenib]	> 7
CCCNC(=O)c1cn2ncnc(Nc3cc(C(=O)NC4CC4)ccc3C)c2c1C	> 7
O=C(O)c1ccc(Nc2ncc3c(n2)-c2ccc(Cl)cc2C(c2c(F)cccc2F)=NC3)cc1	> 7
Cc1cc(O)c2c(c1)C(=O)c1cccc(O)c1C2=O [Chrysophanic Acid]	> 7
O=C(NC(NC(=S)Nc1ccc(F)c([N+](=O)[O-])c1)C(Cl)(Cl)Cl)C(c1ccccc1)c1ccccc1 (stereo not drawn)	> 7
O=c1cc(-c2ccccc2)oc2c(O)c(O)ccc12 [7,8-Dihydroxyflavone]	> 7
C[C@@H](Oc1cc(-c2cnn(C3CCNCC3)c2)cnc1N)c1c(Cl)ccc(F)c1Cl	> 7
Cc1[nH]c(/C=C2\C(=O)Nc3ccc(S(=O)(=O)Cc4c(Cl)cccc4Cl)cc32)c(C)c1C(=O)N1CCC[C@@H]1CN1CCCC1	5
Cc1nc(NC(=O)N2CCC[C@H]2C(N)=O)sc1-c1csc(C(C)(C)C)n1	> 7
CNCc1ccc(-c2cc(-c3nc(-c4ccc(S(=O)(=O)C(C)C)cc4)cnc3N)on2)cc1	> 7
CN(C)S(=O)(=O)c1ccc2c(c1)/C(=C/c1cc3c([nH]1)CCCC3)C(=O)N2	> 7
O=C(c1cccc(Cl)c1F)N1CCN(Cc2cccc(Nc3nccs3)n2)CC1	> 7
COc1cc2ncnc(Nc3ccc(Cl)cc3F)c2cc1OC	1
COc1ccc(COc2cc3oc(=O)c4cc(C(C)O)ccc4c3cc2OC)cc1 (stereo not drawn) [Palomid 529 (P529)]	> 7
O=c1cc(-c2cccc3c2Sc2ccccc2S3)oc(N2CCOCC2)c1	> 7
O=S(=O)(NCCNCC=Cc1ccc(Br)cc1)c1cccc2cnccc12	> 7
COc1cc(OC)c(/C=C/S(=O)(=O)Cc2ccc(OC)c(NCC(=O)O)c2)c(OC)c1	> 7
CNC(=O)c1ccccc1Sc1ccc2c(/C=C/c3ccccn3)n[nH]c2c1 [Axitinib]	> 7
